Assay results taken from the supplement of paper PMC4604168 (melanoma cell lines).
The list shows a part of the results. Many values rest on one well or one pass, so single values are uncertain.

Legend:
Test in all cases: cell count relative to DMSO control; melanoma cells; higher = more viable cells
Settings in all cases: library dose: standard library concentration; 72 h
G361 = tested on: G361
IPC-298 = tested on: IPC-298
IST-MEL1 = tested on: IST-MEL1
LB2518-MEL = tested on: LB2518-MEL
LOXIMVI = tested on: LOXIMVI
MEL-HO = tested on: MEL-HO
MZ2-MEL = tested on: MZ2-MEL
MeWo = tested on: MeWo
RPMI7951 = tested on: RPMI7951
RVH-421 = tested on: RVH-421
SkMel28 = tested on: SkMel28
SkMel2 = tested on: SkMel2
SkMel30 = tested on: SkMel30
SkMel5 = tested on: SkMel5
UACC257 = tested on: UACC257
UACC62 = tested on: UACC62
WM115 = tested on: WM115
WM1716 = tested on: WM1716
WM1745 = tested on: WM1745
WM3526 = tested on: WM3526
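Note: cells treated in 1,536-well plates, then fixed and DAPI-stained, with nuclei counted from automated high-throughput microscope images.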

Row | Compound | cell count (G361) | cell count (IPC-298) | cell count (IST-MEL1) | cell count (LB2518-MEL) | cell count (LOXIMVI) | cell count (MEL-HO) | cell count (MZ2-MEL) | cell count (MeWo) | cell count (RPMI7951) | cell count (RVH-421) | cell count (SkMel28) | cell count (SkMel2) | cell count (SkMel30) | cell count (SkMel5) | cell count (UACC257) | cell count (UACC62) | cell count (WM115) | cell count (WM1716) | cell count (WM1745) | cell count (WM3526)
1 | CC(=O)O[C@@]12CO[C@@H]1C[C@H](O)[C@@]1(C)C(=O)[C@H](O)C3=C(C)[C@@H](OC(=O)[C@H](O)[C@@H](NC(=O)OC(C)(C)C)c4ccccc4)C[C@@](O)([C@@H](OC(=O)c4ccccc4)[C@H]21)C3(C)C [Docetaxel] + CN(NC(=O)CC(=O)NN(C)C(=S)c1ccccc1)C(=S)c1ccccc1 [STA4783] (first compound 0.0005 µM, partner dose 0.03 µM) | 11.7% | 33% | 20% | 26% | 44.1% | 41.2% | 43.9% | 15.1% | 10.3% | 37.6% | 9.12% | 16.9% | 48.3% | 21.4% | 67.3% | 40.8% | 16.7% | 33.7% | 20.3% | 35%
2 | Nc1ccn([C@@H]2O[C@H](CO)[C@@H](O)C2(F)F)c(=O)n1 [gemcitabine] + O=C(O)c1ccc(-c2c[nH]c3ncc(-c4ccccc4)cc23)cc1C1CCCC1 [GSK650394] (first compound 0.002 µM, partner dose 0.8 µM) | 37.4% | 54.9% | 44.8% | 60% | 98.7% | 64.5% | 73.8% | 53.9% | 52.9% | 69.3% | 96.7% | 78% | 91.9% | 87.2% | 92.6% | 94.6% | 59.2% | 71.5% | 60.4% | 101%
3 | CO[C@H]1C[C@@H]2CC[C@@H](C)[C@@](O)(O2)C(=O)C(=O)N2CCCC[C@H]2C(=O)O[C@H]([C@H](C)C[C@@H]2CC[C@@H](OCCO)[C@H](OC)C2)CC(=O)[C@H](C)/C=C(\C)[C@@H](O)[C@@H](OC)C(=O)[C@H](C)C[C@H](C)/C=C/C=C/C=C/1C [everolimus] + OCc1c[nH]c2ccccc12 [Indole-3-carbinol] (first compound 0.1 µM, partner dose 4 µM) | 58.8% | 75.6% | 91.1% | 80.3% | 63.7% | 73.1% | 80.1% | 55.7% | 90.9% | 82.2% | 45.9% | 82.8% | 63.1% | 66.5% | 102% | 63.2% | 61.9% | 62.5% | 85.4% | 69.6%
4 | CC(=O)O[C@@]12CO[C@@H]1C[C@H](O)[C@@]1(C)C(=O)[C@H](O)C3=C(C)[C@@H](OC(=O)[C@H](O)[C@@H](NC(=O)OC(C)(C)C)c4ccccc4)C[C@@](O)([C@@H](OC(=O)c4ccccc4)[C@H]21)C3(C)C [Docetaxel] + O=C(Nc1cccc(Cl)c1)Nc1ncc(CCNc2ncnc3ccsc23)s1 [SNS314] (first compound 0.0005 µM, partner dose 0.004 µM) | 16.9% | 39% | 36% | 54.3% | 65.1% | 62.8% | 49% | 37.5% | 31.8% | 54.2% | 32.5% | 34.9% | 48.1% | 31.4% | 63.6% | 64.4% | 31.5% | 30.9% | 29.2% | 46.4%
5 | Nc1ncn([C@H]2C[C@H](O)[C@@H](CO)O2)c(=O)n1 [decitabine] + COCC[n+]1c2c(n(Cc3cnccn3)c1C)C(=O)c1ccccc1C2=O [YM155] (first compound 0.5 µM, partner dose 0.002 µM) | 66.3% | 35% | 37.5% | 27.2% | 37.4% | 73.5% | 26.6% | 27.9% | 26.2% | 65.7% | 65.6% | 46% | 81.2% | 29.7% | 19.5% | 50.7% | 53.5% | 39.3% | 86.7% | 39.1%
6 | CO[C@H]1C[C@@H]2CC[C@@H](C)[C@@](O)(O2)C(=O)C(=O)N2CCCC[C@H]2C(=O)O[C@H]([C@H](C)C[C@@H]2CC[C@@H](OCCO)[C@H](OC)C2)CC(=O)[C@H](C)/C=C(\C)[C@@H](O)[C@@H](OC)C(=O)[C@H](C)C[C@H](C)/C=C/C=C/C=C/1C [everolimus] + Nc1nc(F)nc2c1ncn2[C@@H]1O[C@H](CO)[C@@H](O)[C@@H]1O [fludarabine] (first compound 0.1 µM, partner dose 1 µM) | 58.5% | 66.6% | 63.8% | 69.7% | 56.1% | 60.1% | 71.5% | 68.6% | 35.8% | 85.6% | 1.84% | 3.5% | 14.8% | 28.1% | 30.5% | 64.7% | 71.7% | 65.2% | 73% | 21.6%
7 | CC(=O)O[C@@]12CO[C@@H]1C[C@H](O)[C@@]1(C)C(=O)[C@H](O)C3=C(C)[C@@H](OC(=O)[C@H](O)[C@@H](NC(=O)OC(C)(C)C)c4ccccc4)C[C@@](O)([C@@H](OC(=O)c4ccccc4)[C@H]21)C3(C)C [Docetaxel] + NCC(=O)Nc1ccc(-n2nc(C(F)(F)F)cc2-c2ccc3c(ccc4ccccc43)c2)cc1 [OSU03012] (first compound 0.0005 µM, partner dose 5 µM) | 12.8% | 39.9% | 47.5% | 36.9% | 55.4% | 42.1% | 39% | 22.6% | 28.5% | 34.2% | 14% | 18.7% | 25.1% | 35.4% | 63.7% | 34.4% | 26.3% | 33.4% | 29.8% | 34.9%
